About 5,000 (1.2%) of roughly 410,000 compounds were called active. Inconclusive results, whose numbers are uncertain, are shown with a selection of clear calls. The call rests on the fitted dose curve; in most records, active means well fitted inhibition curve with a large enough effect; inconclusive means small, poorly fitted or top-dose-only effect; inactive means no such curve, though single readings can be large or run the other way. A potency beside an inconclusive call is a rough fit, not a confirmed value.
Assay: qHTS for Inhibitors of TGF-b; further: nearly all actives have a fitted effect of over 65% in size
Details: HepG2 CAGA-GFP TGF-b/SMAD3 reporter, GFP fluorescence, 18 h, TGF-beta stimulated, 500 pg/mL final; series mostly up to 46.1 µM; activity, negative = inhibition: at the top concentration
Method in brief: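 HEPG2 CAGA-GFP, 1000 cells/well; 2 h settle, 37 C; cpd via pin tool; TGF-b 500 pg/mL final; 18 h, 37 C; GFP imaging ex488/em500-530; %Activity normalised to -TGF-b and +DMSO controls; CRC fit, curve class.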
On the % scale 0 is the no-effect control and ±100 the full control effect; potency means the concentration at half of the fitted maximal effect; tags describe the fitted curve by direction and shape.

SMILES	Potency	activity, negative = inhibition
COC(=O)c1cc2c(n(Cc3ccccc3)c1=O)CCCC2=O	inconclusive: 0.1 µM [inhibitor, full curve, poor fit]	–
COC(=O)[C@@]1(Cc2ccc(F)cc2)[C@H]2c3cc(C(=O)N(C)C)n(CCSCCO)c3C[C@H]2CN1C(=O)c1ccccc1	inconclusive: 35.5 µM [inhibitor, single point]	–
Clc1ccc(-c2nc3ccc(Br)cn3c2Cc2cccc(Cl)c2)cc1	inconclusive: 14.1 µM [inhibitor, partial curve, poor fit]	–
CCCC[C@@H](CNC)NC[C@H](Cc1ccc(O)cc1)NCCc1ccc(OCC)cc1	inconclusive: 28.2 µM [inhibitor, single point]	–
COc1cc2nc(N(C)C)nc(N)c2cc1OC	inconclusive: 35.5 µM [inhibitor, single point]	–
COc1ccc(S(=O)(=O)Cc2ccc(C(=O)N3CCN(c4cc(C)ccc4C)CC3)o2)cc1	inconclusive: 35.5 µM [inhibitor, single point]	–
Cc1cc(C)c2cc(C(=O)N3CCC(Cc4ccccc4)CC3)[nH]c2c1	inconclusive: 22.4 µM [inhibitor, single point]	–
O=C(O)c1cccnc1SCc1cccc(Cl)c1	inconclusive: 2.82 µM [inhibitor, partial curve]	–
O=C(CC1Sc2ccccc2NC1=O)NNc1cc(Cl)ccc1Cl (configuration not stated)	–	inactive: -13.7%
CCC1Sc2ccc(S(=O)(=O)Nc3cc(OC)cc(OC)c3)cc2NC1=O (configuration not stated)	inconclusive: 35.5 µM [inhibitor, single point]	–
O=C(CSc1ccc2nnc(-c3ccccn3)n2n1)N1CCN(c2ccccc2)CC1	inconclusive: 5.62 µM [inhibitor, single point]	–
Cc1ccc(S(=O)(=O)Nc2ccc3nc(-c4cccn4C)[nH]c3c2)cc1	inconclusive: 10 µM [inhibitor, partial curve]	–
COc1ccc2c(c1)C1(Nc3ccccc3-c3nc4ccccc4n31)C(=O)N2 (configuration not stated)	inconclusive: 3.55 µM [inhibitor, partial curve]	–
Cc1ccc(Nc2nc(Nc3ccc(Cl)cc3)nc(N3CCOCC3)n2)cc1	–	inactive: 5.58%
COCCOc1cc(-n2ccnc2SC)c(Cl)cc1Cl	inconclusive: 35.5 µM [inhibitor, single point]	–
COCCNC(=O)[C@@]1(C)C=C[C@@H](Cc2ccccc2)N1C(=O)c1ccccc1	–	inactive: 2.55%
Cc1ccc(S(=O)(=O)N2CCC[C@H]2C(=O)Nc2ccc(F)cc2C)cc1	inconclusive: 35.5 µM [inhibitor, partial curve, poor fit]	–
CCC(=O)Nc1ccc(S(=O)(=O)c2ccc(NC(=O)CC)cc2)cc1	inconclusive: 0.316 µM [inhibitor, full curve, poor fit]	–
O=C(c1ccccc1)c1ccc(Cn2cc(CCCO)nn2)cc1	inconclusive: 3.16 µM [inhibitor, single point]	–
CC(=O)c1ccc(Oc2ncnc3sccc23)cc1	–	inactive: 14.1%
COc1ccccc1N1CCN(C(CNS(=O)(=O)c2cccs2)c2cccnc2)CC1 (configuration not stated)	–	inactive: -13.7%
CN(CC(=O)Nc1ccc(F)c(F)c1F)C(=O)c1ccc2c(c1)NC(=O)CS2	–	inactive: 5.98%
O=C(Nc1ccc(Cl)cc1)c1cccc(OC(=S)N2CCOCC2)c1	inconclusive: 12.6 µM [inhibitor, single point]	–

SMILES	Potency	activity, negative = inhibition
CN(C(=S)Nc1ccc(Oc2ccccc2)cc1)C1CCCCC1	inconclusive: 12.6 µM [inhibitor, partial curve, poor fit]	–
N#CCC(=O)NCCCOC(=O)Nc1ccc(Cl)c(Cl)c1	inconclusive: 35.5 µM [inhibitor, single point]	–
O=C(Nc1ccccc1F)c1ccccc1-c1ccccc1	inconclusive: 3.55 µM [inhibitor, single point]	–
CCOC(=O)c1c(C)oc2nc(C)nc(NCCCN3CCN(c4cc(Cl)ccc4C)CC3)c12	inconclusive: 7.94 µM [inhibitor, partial curve]	–
CC(C)c1cc2c(c(O)c1O)[C@@]13CCCC(C)(C)C1CC2OC3=O (some centres not stated)	active: 12.6 µM	–
COc1ccc(S(=O)(=O)Nc2ccc(F)cc2)cc1N(C)S(=O)(=O)c1ccc(Cl)cc1	inconclusive: 15.8 µM [inhibitor, single point]	–
O=C(NNC(=O)c1cc(OCC(F)(F)F)ccc1OCC(F)(F)F)c1ccc(Cl)c(Cl)c1	inconclusive: 20 µM [inhibitor, single point]	–
CCOC(=O)c1cccc(NC(=O)Nc2ccc3c(c2)N(C)C(=O)c2ccccc2S3)c1	inconclusive: 10 µM [inhibitor, partial curve]	–
CC(C)(C)c1cc(OC(=O)c2ccccc2F)ccc1O	inconclusive: 22.4 µM [inhibitor, single point]	–
CN(C)c1ccc(/C=C/c2cc3ccccc3cn2)cc1	active: 11.2 µM	–
O=C(NCC(c1ccccc1Cl)N1CCCC1)c1ccc(N2CCCC2=O)cc1 (configuration not stated)	–	inactive: -2.33%
COc1ccc(S(=O)(=O)Cc2ccc(C(=O)N3CCCC3)o2)cc1	inconclusive: 3.98 µM [inhibitor, single point]	–
CCCNC(=O)c1c(NC(=O)c2ccc(C)cc2)sc2c1CCCCC2	–	inactive: 4.71%
CC(=O)N1CCOc2cc(S(=O)(=O)Nc3cc(C(F)(F)F)ccc3Cl)c(C)cc21	–	inactive: -28.2%
COc1ccc([C@@H]2CC=C(C(=O)O)[C@H](c3cccc(Cl)c3)N2S(=O)(=O)c2ccc(Cl)cc2)cc1	inconclusive: 35.5 µM [inhibitor, single point]	–
O=C1c2ccccc2C(=O)N1CCCCNc1ccccc1	inconclusive: 2.51 µM [inhibitor, full curve, poor fit]	–
Oc1ccccc1/C=N/NC(=S)NCCc1ccccc1	–	inactive: 0%
CCOC(=O)c1noc2ncn(CC(=O)Nc3cc(Cl)ccc3OC)c(=O)c12	–	inactive: 17.5%
Cc1ccc(-c2ccc(CN3C(CC(C)C)C(=O)N(Cc4cn(CCC5OCCO5)nn4)CCS3(=O)=O)cc2)cc1 (configuration not stated)	active: 22.4 µM	–
Cc1cc(NC(=O)c2cc([N+](=O)[O-])cc([N+](=O)[O-])c2)no1	inconclusive: 35.5 µM [inhibitor, single point]	–
CCCc1cc(=S)n2c([nH]c3ccccc32)c1C#N	inconclusive: 22.4 µM [inhibitor, single point]	–
O=[N+]([O-])c1cccc(COc2ccccc2CN2CCCCC2)c1	–	inactive: 11.5%
CC1CC(C)CN(C(=O)c2ccc3c(c2)OCCO3)C1 (configuration not stated)	inconclusive: 35.5 µM [inhibitor, single point]	–

SMILES	Potency	activity, negative = inhibition
O=C(c1cccs1)c1cn(CCOc2ccc(F)cc2)c2ccccc12	inconclusive: 8.91 µM [inhibitor, partial curve, poor fit]	–
CCOC(=O)c1c(C)[nH]c(C)c1S(=O)(=O)NCC(=O)Nc1ccc(CC)cc1	inconclusive: 35.5 µM [inhibitor, single point]	–
O=C(CNC(=O)c1cccc(Br)c1)N/N=C/c1cccs1	–	inactive: -20.5%
O=C(COc1ccccc1)NC(=S)Nc1ccc(Br)cn1	inconclusive: 35.5 µM [inhibitor, single point]	–
Cc1ccc(C(=O)COC(=O)CNC(=O)c2ccco2)cc1	inconclusive: 3.16 µM [inhibitor, single point]	–
O=C(NCC(c1ccco1)N1CCN(c2ccc(F)cc2)CC1)c1cccs1 (configuration not stated)	–	inactive: 4.96%
O=C(C[C@H]1C[C@H](C(=O)N2CCOCC2)[C@@]2(CCC3CCCC3)c3[nH]c4cc(-c5ccco5)ccc4c3CCN2C1=O)NCCc1ccccn1	inconclusive: 14.1 µM [inhibitor, single point]	–
Nc1nc(N)c(-c2cccc(C(F)(F)F)c2)c(Cc2cccc(C(F)(F)F)c2)n1	inconclusive: 25.1 µM [inhibitor, single point]	–
Cn1cc(-c2cc3n(n2)CCC(=O)N3CCCC(=O)Nc2ccccc2Cl)c2ccccc21	inconclusive: 22.4 µM [inhibitor, single point]	–
COc1ccc(C(=O)Oc2ccc(/C=N/NC(=O)c3ccccc3OC)cc2[N+](=O)[O-])cc1	inconclusive: 3.98 µM [inhibitor, single point]	–
COc1cc(-c2nc3ccc(Cl)cn3c2Nc2ccc3c(c2)OCO3)ccc1O	inconclusive: 35.5 µM [inhibitor, single point]	–
COc1ccc(N2CCN(CC(=O)NC(=O)NC(C)(C)C)CC2)cc1	–	inactive: -8.87%
Cc1cc(NC(=O)CSc2ccc(-c3ccc(Br)cc3)nn2)no1	–	inactive: -11.8%
Cc1ccccc1S(=O)(=O)Cc1ccc(C(=O)NCc2ccccc2Cl)o1	inconclusive: 12.6 µM [inhibitor, single point]	–
COc1ccc(/C=C/C(=O)NC(=S)Nc2ccc(S(=O)(=O)Nc3ccc(OC)nn3)cc2)cc1	–	inactive: 5.94%
CS/C(=C/[N+](=O)[O-])Nc1cccc2c1C(C)CC2(C)C (configuration not stated)	inconclusive: 3.98 µM [inhibitor, single point]	–
O=C(Nc1ccccc1)N1C2CCC1CC(O)(c1cccnc1)C2 (configuration not stated)	inconclusive: 17.8 µM [inhibitor, single point]	–
CC(C(=O)NCc1cccc(Br)c1)n1ncn2cccc2c1=O (configuration not stated)	–	inactive: 4.25%
Cc1cc2oc3ccc(NCCC4CCCN4C)cc3c(=O)c2cc1C (configuration not stated)	inconclusive: 22.4 µM [inhibitor, single point]	–
CC(=O)c1cccc(CN2CCC(C(=O)Nc3ccc(-c4cccc(C)c4)cc3)CC2)c1	inconclusive: 25.1 µM [inhibitor, single point]	–
Cc1ccccc1OCC(=O)Nc1ccc(N2CCN(C(=O)c3ccco3)CC2)cc1	–	inactive: -10.5%
